Laboratory results taken from PubChem BioAssay AID2101 (National Center for Advancing Translational Sciences (NCATS), 2009).
About 300 (0.091%) of roughly 330,000 compounds were called active. Inconclusive means that the source gave no clear call. Such entries were picked first, then a sample of the others. Calls come from the whole dose curve; as a rule, active = well fitted inhibition curve with a large enough effect; inconclusive = small, poorly fitted or top-dose-only effect, or effect the other way, or another doubt; inactive = no such curve, though single readings can be large or run the other way. No potency is given beside an inconclusive call; the fits are too rough.

target: Lysosomal acid glucosylceramidase (Homo sapiens) (UniProt P04062); assay: qHTS Assay for Inhibitors and Activators of N370S glucocerebrosidase as a Potential Chaperone Treatment of Gaucher Disease; conditions: N370S GC spleen homogenate, 4MU-glucoside fluorescence; activity change, negative = inhibition: at 59.4 µM (top of the series) unless noted;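 for activity change, negative = inhibition: 0% = full enzyme activity and -100% = no enzyme basal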
Potency is the fitted concentration of half-maximal effect.

| SMILES | Potency | activity change, negative = inhibition |
| --- | --- | --- |
| COc1cc(NC(=O)C(Cc2ccccc2)n2cccc2)cc(OC)c1 (stereo unspecified) | inconclusive [activator, single point] | – |
| COc1cc(/C=N/NC(=O)CCc2ccccc2)ccc1O | inconclusive [inhibitor, partial curve] | – |
| COc1cccc(C(=O)Nc2ccccc2)c1 | inactive | – |
| C=CCn1cc(CN2CCC(C(=O)Nc3cccc(-c4cccc(Cl)c4)c3)CC2)c(C)n1 | inconclusive [inhibitor, partial curve, poor fit] | – |
| CC(C#N)(NC(=O)COC(=O)c1ccccc1NCCO)C1CC1 (stereo unspecified) | inconclusive [activator, partial curve] | – |
| Cn1c(SCc2c(F)cccc2Cl)nnc1-c1cccs1 | inactive | – |
| Cc1ccc(-c2nnc3sc(C4COc5ccccc5O4)nn23)cc1 (stereo unspecified) | – | inconclusive: 33.4% [activator] |
| CCOC(=O)c1c(-c2ccccc2)nnn1-c1nc(OCC)nc(N2CCCCC2)n1 | inconclusive [activator, partial curve] | – |
| Cc1c(Cl)cccc1NC(=O)N1CCCN(c2nc(-c3ccccc3)ns2)CC1 | inconclusive [activator, partial curve] | – |
| COc1ccc(C(=O)CN2CCN(c3ccc(F)cc3)CC2)cc1 | inconclusive [inhibitor, partial curve] | – |
| COC(=O)C1=CN(Cc2cccs2)C=C(C(=O)OC)C1c1cccc(O)c1 | inconclusive [activator, partial curve] | – |
| N#Cc1c(NC(=O)CSc2nc(-c3ccccc3)cc(C(F)(F)F)n2)sc2c1CCC2 | inactive | – |
| N#Cc1ccc(NC(=S)NCCN2CCOCC2)cc1 | inconclusive [inhibitor, single point] | – |
| CSCC[C@H](N)C(=O)N[C@@H](C)C(=O)NCC(=O)N[C@@H](CCCN=C(N)N)C(=O)N[C@@H](CO)C(=O)NCC(=O)N[C@@H](CC(=O)O)C(=O)N[C@@H](CO)C(=O)N[C@@H](CC(=O)O)C(=O)N[C@@H](CCC(=O)O)C(=O)N[C@@H](CC(=O)O)C(=O)N[C@@H](CC(C)C)C(=O)N[C@@H](CC(C)C)C(=O)N[C@@H](CCCCN)C(=O)N[C@@H](C)C(=O)N[C@H](C(=O)O)C(C)C | inactive | – |
| O=c1c(O[C@@H]2O[C@H](CO)[C@H](O)[C@H](O)[C@H]2O)c(-c2ccc(O)c(O)c2)oc2cc(O)cc(O)c12 | inconclusive [inhibitor, single point] | – |
| O=C(Nc1cccnc1)Nc1ccc(Br)cc1Cl | inconclusive [inhibitor, partial curve] | – |
